Results published in PubChem BioAssay AID485294 (National Center for Advancing Translational Sciences (NCATS), 2010).
Hit rate of the full screen: of about 370,000 compounds, about 150 (0.041%) were called active. The inconclusive results got no clear call from the source; some entries with a clear call stand among them for comparison. The call rests on the fitted dose curve; in most records, active means well fitted inhibition curve with a large enough effect; inconclusive means small, poorly fitted or top-dose-only effect; inactive means flat fitted curve, though single readings scatter. Potencies of inconclusive entries are left out as doubtful fits.

What follows are compounds tested against Beta-lactamase (Escherichia coli (strain K12)) (UniProt P00811) (assay: qHTS Inhibitors of AmpC Beta-Lactamase (assay with detergent)). Conditions: AmpC hydrolysis of nitrocefin, absorbance 480 nm, 0.01% Triton; activity change, negative = inhibition: at 114 µM (top of the series).
Chain of UniProt P00811 (P00811 whole entry, looked up): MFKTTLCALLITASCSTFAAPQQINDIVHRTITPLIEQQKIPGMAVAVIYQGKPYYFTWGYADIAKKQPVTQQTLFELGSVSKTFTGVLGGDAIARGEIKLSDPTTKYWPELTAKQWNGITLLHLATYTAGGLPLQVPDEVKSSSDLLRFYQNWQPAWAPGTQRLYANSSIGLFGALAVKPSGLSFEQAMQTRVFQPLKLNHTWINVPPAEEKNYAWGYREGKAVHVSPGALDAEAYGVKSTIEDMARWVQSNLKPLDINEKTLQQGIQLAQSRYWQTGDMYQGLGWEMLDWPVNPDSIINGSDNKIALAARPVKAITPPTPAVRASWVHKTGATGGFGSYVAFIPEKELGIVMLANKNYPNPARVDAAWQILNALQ
In short: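 20 mM phosphate pH 7.0 + 0.01% (detergent screen) or 0.0001% Triton X-100; 5.3 nM AmpC reagent; cpd preinc 15 min RT; nitrocefin (800 uM stock) to start; A480 q20 s × 4 min; Activity was normalised to no-enzyme and no-compound control wells.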
Further: nearly all actives have a fitted effect of over 25% in size.
Potency means the concentration at half of the fitted maximal effect; tags describe the fitted curve by direction and shape.
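Wherever activity change, negative = inhibition is given: 0% = no-compound wells and -100% = no-enzyme wells.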

| Structure (SMILES) | Potency | activity change, negative = inhibition |
| --- | --- | --- |
| Cc1c(C(=O)OCC(=O)N2CCCC2=O)oc2ccccc12 | inconclusive [inhibitor, full curve] |  |
| CCOc1ccc(NC(=O)Nc2ccccc2C(N)=O)cc1 |  | inactive: 1.97% |
| Cc1cc(C)c(C#N)c(N2CCN(Cc3ccccc3)CC2)n1 | inconclusive [inhibitor, single point] |  |
| CCOC(=O)N1CCC(n2c(SCC(=O)N3CCC(C)CC3)nc3ccccc3c2=O)CC1 | inconclusive [inhibitor, single point] |  |
| Cc1ccc(-n2cc(C(=O)c3ccccc3O)cn2)cc1 | inconclusive [inhibitor, partial curve, poor fit] |  |
| CSc1nc2ccc(NC(=O)c3nn(C(C)C)c(=O)c4ccccc34)cc2s1 | inconclusive [inhibitor, partial curve] |  |
| Cc1ccccc1C(=O)NC(=S)Nc1ccccc1N1CCCC1 |  | inactive: 2.42% |
| Cn1c2c(c(=O)n(C)c1=O)C(c1cccc([N+](=O)[O-])c1)Nc1ccccc1O2 (centres undefined) | inconclusive [inhibitor, partial curve] |  |
| O=C(OCC(=O)N1CCc2ccccc21)c1ccc[n+]([O-])c1 |  | inactive: -1.51% |
| O=C(CCC(=O)NC1CCCCC1)N/N=C/c1ccncc1 |  | inactive: -14.3% |
| CCC(=O)N1CCc2cc(S(=O)(=O)N3CCc4ccccc4C3)ccc21 | inconclusive [inhibitor, full curve] |  |
| CCN(CC)C(=O)C[n+]1cccc(C(N)=O)c1 | inconclusive [inhibitor, full curve] |  |
| O=c1c(-c2ccc(Cl)cc2)coc2c(CN3CCOCC3)c(O)ccc12 |  | inactive: -15.8% |
| CN(c1ncnc2onc(-c3cccc(Cl)c3)c12)C1CCCCC1 |  | inactive: 6.77% |
| CNc1nc(N2CCc3ccccc32)ncc1F |  | inactive: -0.466% |
| Cc1cccc(NC(=O)C2CCN(S(=O)(=O)c3c(C)[nH]c(=O)[nH]c3=O)CC2)c1 | inconclusive [inhibitor, full curve, poor fit] |  |
| CCOc1ccc(S(=O)(=O)NCCC(=O)NCCc2ccc(C(C)C)cc2)cc1 | inconclusive [inhibitor, full curve, poor fit] |  |
| COc1nc(OCCNC(C)=O)nc(N(C)C)n1 | inconclusive [inhibitor, single point] |  |
| CC(C)CNC(=O)c1ccc2c(c1)C(=O)N(Cc1ccco1)C2=O | inconclusive [inhibitor, full curve, poor fit] |  |
| O=C(COC(=O)CSc1ccc(Br)cc1)NCc1ccco1 |  | inactive: -16.9% |
| CC(=O)c1cn(CC(=O)NCCc2c[nH]c3ccccc23)c2ccccc12 | inconclusive [inhibitor, partial curve] |  |
| CC(C)(C)c1ccc(OCCNC(=O)Cc2ccc(F)cc2)cc1 |  | inactive: 2.09% |
| Cc1cccnc1NC(=O)c1ccc2c(c1)OCO2 | inconclusive [inhibitor, partial curve, poor fit] |  |

| Structure (SMILES) | Potency | activity change, negative = inhibition |
| --- | --- | --- |
| COc1ccc([N+](=O)[O-])cc1NC(=O)c1ccc(CN(c2ccc(C)c(C)c2)S(C)(=O)=O)cc1 | inconclusive [inhibitor, partial curve, poor fit] |  |
| Cc1ccc(-n2c(=O)c3c(C)c(C(=O)N(C)C)sc3n(CC(=O)C(C)(C)C)c2=O)cc1C |  | inactive: 8.21% |
| NC1=NC(=O)CC(C(=O)NCc2ccccc2)S1 (centres undefined) | inconclusive [inhibitor, full curve] |  |
| CCOC(=O)C1CCCN(C(=O)c2nn(-c3ccc(OC)cc3)c(=O)c3c2c2ccccc2n3C)C1 (centres undefined) |  | inactive: -2.93% |
| COc1cc2c(cc1OC)C1=C(C#N)CC/C(=N\S(=O)(=O)c3cccc(Cl)c3)N1CC2 | inconclusive [inhibitor, full curve, poor fit] |  |
| CC(=O)OC(C)CS(=O)(=O)c1ccccc1 (centres undefined) | inconclusive [inhibitor, single point] |  |
| CCOC(=O)C1CCN(C(=O)c2cccc(C(=O)N3CCC(C(=O)OCC)CC3)c2)CC1 | inconclusive [inhibitor, full curve, poor fit] |  |
| Cc1c(Cl)cccc1NC(=S)N1CCOCC1 | inconclusive [inhibitor, full curve, poor fit] |  |
| O=C1c2ccccc2C(=O)N1CCc1csc(-c2cccc(F)c2)n1 | inconclusive [inhibitor, full curve] |  |
| C=CCN1C(=O)N/C(=C/c2ccccc2OCC(=O)Nc2ccc(F)cc2)C1=O | inconclusive [inhibitor, partial curve, poor fit] |  |
| CSc1ccc(CN2CCC(N3CC(C)OC(C)C3)CC2)cc1 (centres undefined) |  | inactive: -13% |
| S=C(NCCN1CCOCC1)Nc1cccc(Cl)c1 | inconclusive [inhibitor, full curve] |  |
| Cc1cccc(N2CCN(S(=O)(=O)c3ccc4c(c3)CCN4C(=O)CCC(=O)O)CC2C)c1 (centres undefined) | inconclusive [inhibitor, partial curve, poor fit] |  |
| CCOC(=O)c1c(S(=O)(=O)N2CCCC(C(=O)NCc3ccc(Cl)cc3)C2)c(C)n(C)c1C (centres undefined) |  | inactive: -6.37% |
| NC(=O)c1ccc(N2CCN(c3ccc(O)cc3)CC2)c([N+](=O)[O-])c1 |  | inactive: -7.14% |
| O=C(N/C(=C/c1cn(-c2ccccc2)nc1-c1ccccc1)C(=O)N1CCOCC1)c1ccccc1 | inconclusive [inhibitor, single point] |  |
| O=C(COc1ccccc1)Nc1nnc(-c2ccc3c(c2)CCCC3)o1 | inconclusive [inhibitor, full curve, poor fit] |  |
| CCOC(=O)C1=C(C)NC(=O)NC1c1ccccc1 (centres undefined) | inconclusive [inhibitor, full curve, poor fit] |  |
| Cc1cccc(Cn2c(CNS(=O)(=O)c3ccc4c(c3)CCCC4)nc3cccnc32)c1 |  | inactive: 3.55% |
| CCOC(=O)CSc1nnc(NC(=O)c2cccc(S(=O)(=O)N3CCCCC3)c2)s1 | inconclusive [inhibitor, single point] |  |
| CCOC(=O)c1c(NC(=O)OC)sc(C(=O)N(C)C)c1C |  | inactive: -2.54% |
| NC/C(=N\O)c1ccc(Cl)cc1Cl | inconclusive [inhibitor, partial curve] |  |
| CCCc1[nH]n(-c2ccc([N+](=O)[O-])cc2)c(=O)c1C=NCCc1c[nH]c2ccccc12 | inconclusive [inhibitor, full curve, poor fit] |  |

| Structure (SMILES) | Potency | activity change, negative = inhibition |
| --- | --- | --- |
| c1ccc(CSc2ncnc3c2cnn3-c2ccccc2)cc1 | inconclusive [inhibitor, full curve, poor fit] |  |
| NC(=O)CC(NC(=O)Cc1cccc2ccccc12)c1ccc(NC2CCN(Cc3ccccc3)CC2)c([N+](=O)[O-])c1 (centres undefined) | inconclusive [inhibitor, full curve] |  |
| N#CCC(=O)Nc1nc(-c2ccc3c(c2)OCCO3)cs1 | inconclusive [inhibitor, full curve, poor fit] |  |
| COc1ccc(NS(=O)(=O)c2ccc(OC)c(N(C)S(=O)(=O)c3ccc(Cl)cc3)c2)cc1 |  | inactive: 4.44% |
| Cc1cc(C)c(C#N)c(SCCS(=O)(=O)Cc2ccccc2)n1 | inconclusive [inhibitor, full curve, poor fit] |  |
| COc1ccc(CC(=O)NNC(=O)COc2ccc(C)cc2)cc1S(=O)(=O)N1CCOCC1 | inconclusive [inhibitor, partial curve] |  |
| NC(=O)c1c(NC(=O)c2ccc(S(=O)(=O)N3CCOCC3)cc2)sc2c1CCCCC2 | inconclusive [inhibitor, partial curve, poor fit] |  |
| Cc1ccc2[nH]c3c(=S)nc[nH]c3c2c1 | inconclusive [inhibitor, full curve, poor fit] |  |
| Cc1cccc(C(=O)Nc2ccc3c(c2)C(=O)NC3=O)c1 |  | inactive: -10.3% |
| Cc1ccc(CNC(=O)c2cc3cc(Br)ccc3oc2=N)cc1 |  | inactive: 0.701% |
| COc1ccccc1OCC(=O)NCC(c1ccc(Cl)cc1)N1CCCCC1 (centres undefined) |  | inactive: -3.11% |
| CN(C)CCNC(=O)C(=O)C1C(=O)Nc2ccccc21 (centres undefined) | inconclusive [inhibitor, full curve, poor fit] |  |
| CC(=O)Nc1ccc(S(=O)(=O)NCCNC(=O)c2ccccc2F)cc1 | inconclusive [inhibitor, partial curve, poor fit] |  |
| COc1ccccc1N1C(=O)C2CC(C)=C(C)CC2C1=O (centres undefined) |  | inactive: -4.46% |
| O=C(O)C1CCCN1S(=O)(=O)c1ccccc1 (centres undefined) | inconclusive [inhibitor, full curve, poor fit] |  |
| Cc1cccc(Nc2nc(N)nc(CC(=O)CSc3ccc(Cl)cc3)n2)c1 | inconclusive [inhibitor, full curve, poor fit] |  |
| CC(O)[C@H](NC(=O)C1(c2ccccc2)CCN(C(=O)OC(C)(C)C)CC1)C(=O)O (some centres undefined) | inconclusive [inhibitor, partial curve, poor fit] |  |
| O=c1[nH]c(-c2ccncc2)nc2ccccc12 | inconclusive [inhibitor, single point] |  |
| CCN(CC)S(=O)(=O)c1ccc(OC)c(NC(=O)c2ccc3c(c2)OCO3)c1 |  | inactive: -0.991% |
| CC(C)C(=O)Nc1nc2cc3c(cc2s1)OCO3 | inconclusive [inhibitor, partial curve] |  |
| CCCN(C(=O)c1noc2c1COc1ccc(C)cc1-2)c1ccc(Cl)c(Cl)c1 |  | inactive: 0.092% |
| COc1cc(NC(=O)CC2C(=O)N(c3cccc(C)c3)C(=O)N2Cc2ccc(F)cc2)cc(OC)c1 (centres undefined) |  | inactive: 11.4% |
| CCOc1ccccc1NC(=O)c1cccc2c1C(=O)N(CCOC)C2 | inconclusive [inhibitor, full curve, poor fit] |  |
